Assay results as given in publication PMC10266789 (The Journal of Clinical Investigation, 2023).
Read-outs that look alike come from different tables or passages of the source.

What was measured:
[1] = tested on: Influenza A (strain A/California/07/2009); settings: human dNHBE
HCMV TB40/E [2] = experiment: Mouse gelfoam-fibroblast model of HCMV infection; assay type: in vivo, CIEA NOG mice; settings: day 11; TCID50; FLS-359 50 mg/kg p.o. b.i.d.; valganciclovir 50 mg/kg p.o. daily; P < 0.03
[3] = tested on: Epstein-Barr virus (EBV; strain Akata); settings: PAA; 24 hours after anti-IgG; stimulated control 30%
HCMV TB40/E [4] = experiment: Human lung-only mouse model of HCMV infection; assay type: in vivo, lung-only mice (NSG); settings: day 17; TCID50; FLS-359 50 mg/kg p.o. b.i.d.; ganciclovir 100 mg/kg i.p. daily; P < 0.04
[5] = tested on: HCMV TB40/E-mCherry-UL99eGFP; experiment: HCMV treat-release experiment, TCID50 of culture medium; settings: 96 h infection with drug (0.5 IU/cell), washout, monitored 96 h
[6] = tested on: HCMV TB40/E-mCherry-UL99eGFP; experiment: HCMV virus yield at 72 hpi by TCID50 (3 IU/cell); assay type: cell-based, human cytomegalovirus; settings: Figure 8C
HCMV (strain TB40/E) [7] = settings: for reduction of infected cell area: Figure 4F; for IC50: read-out: HCMV IC50, Table 2, infected MRC-5 cell area at 7 dpi, n = 2
HCMV DNA = experiment: Intracellular HCMV DNA accumulation by qPCR in MRC-5; assay type: cell-based, human cytomegalovirus; settings: 72 hours; 3 IU/cell
HCMV (strain TB40/E) [8] = experiment: microbe, parasite or virus in culture; settings: for EC90: Human betaherpesvirus 5, MRC5, read-out: approximate EC90 against HCMV
[9] = tested on: Epstein-Barr virus (EBV; strain Akata); experiment: microbe, parasite or virus in culture; settings: human gammaherpesvirus 4, Akata, read-out: IC50, Epstein-Barr
[10] = tested on: HCMV TB40/E-mCherry-UL99eGFP; settings: Human betaherpesvirus 5, read-out: HCMV virus yield IC50
[11] = tested on: HCMV TB40/E-mCherry-UL99eGFP; experiment: HCMV delayed treatment protocol, infected cell area in MRC-5; settings: for IC50: Human betaherpesvirus 5, MRC5, 120 h, 5 days of treatment
[12] = tested on: HCMV TB40/E-mCherry-UL99eGFP; experiment: HCMV treat-release-infect experiment, infected cell area; assay type: cell-based, human cytomegalovirus
[13] = Residual drug levels in MRC-5 cells and supernatant after washout, mass spectrometry; assay type: in vitro ADME, human; settings: LMV 0.05 µM, 24 h
Protocol: Supplemental Figure 8. […] (A) Uninfected cells
After 24h, supernatant was collected, monolayers were washed 3x to remove drug and cells were replenished with drug-free media.
Supernatants and cells were then assayed for residual drug levels at 2, 24 or 72h post-release. (B-C) Supernatant and cell-associated drug concentrations were determined by mass spectrometry. (D) […]
monolayer of MRC-5 cells. Sampling of the supernatant was conducted after a 24h incubation at 37°C, followed by 3X washes with PBS, collection of the final wash, and replenishment of drug-free medium to the dishes. Supernatant samples were then collected at 24 and 72h post drug-removal. […]
concentrations as determined by mass spectrometry. Mean +/- SD is shown (n=3).
(1 picture or pasted object on this page, not shown here)

[14] = tested on: Zika virus (strain DAK41525); experiment: microbe, parasite or virus in culture; settings: Fibroblast, read-out: IC50, Zika
[15] = tested on: Betacoronavirus 1 (strain OC43); experiment: microbe, parasite or virus in culture; settings: Betacoronavirus 1, OC43, MRC5, read-out: IC50, HCoV-OC43
[16] = tested on: SARS-CoV-2 (strain USA-WA1/2020); experiment: microbe, parasite or virus in culture; settings: Severe acute respiratory syndrome coronavirus 2, Calu-3, in Homo sapiens, read-out: IC50, SARS-CoV-2
[17] = tested on: Hepatitis B virus (genotype D, subtype ayw); experiment: microbe, parasite or virus in culture; settings: Hepatocyte, read-out: IC50, Hepatitis B
[18] = Human betaherpesvirus 5, MRC5, read-out: HCMV spread IC50, Figure 4F, 0.01 IU/cell, mCherry infected cell area at 7 dpi, mean ± SD, n = 4
[19] = read-out: IC50, infected cell area, drug added at 0 hpi, 0.1 IU/cell
[20] = read-out: IC50, infected cell area, drug added at 24 hpi
[21] = read-out: IC50, infected cell area, drug added at 48 hpi
[22] = read-out: IC50, infected cell area, drug added at 72 hpi
[23] = read-out: IC50, infected cell area, drug added at 96 hpi

NC(=O)c1ncn([C@@H]2O[C@H](CO)[C@@H](O)[C@H]2O)n1 [Ribavirin, reference compound]
IC90, Influenza A (column headed IC50, footnote C: IC90) [1]: 0.7^C μM

CC(C)[C@H](N)C(=O)OCC(CO)OCn1cnc2c(=O)nc(N)[nH]c21 (stereo partly drawn) [valganciclovir, reference compound]
virus production in gelfoam implants (HCMV TB40/E [2]): significantly reduced virus production

O=C(O)CP(=O)(O)O [PAA, phosphonoacetic acid, reference compound]
gp350+ Akata cells [3]: about 11%

Cc1cc(C)nc(SCC(=O)Nc2ncc(Cc3cccc4ccccc34)s2)n1 [SirReal2]
CC50 (MRC-5 cells): > 20 µM

Nc1nc(O)c2ncn(COC(CO)CO)c2n1 [Ganciclovir, ganciclovir]
production of infectious HCMV progeny in human lung implants (HCMV TB40/E [4]): significantly reduced the production of infectious HCMV progeny | time after release of drug block at which progeny virus was detectable [5]: 48 h | production of infectious virus [6]: reduced virus yield to a more limited extent | reduction of infected cell area (HCMV (strain TB40/E) [7]): 33 fold | intracellular viral DNA accumulation (HCMV DNA): inhibited intracellular viral DNA accumulation | IC50 (HCMV (strain TB40/E) [8]; Human betaherpesvirus 5, MRC5, in Homo sapiens, read-out: IC50, HCMV, human MRC-5, Table 1): 2.7 µM | IC50 (HCMV (strain TB40/E) [8]; [18]): 1.7 µM | EC90 (HCMV (strain TB40/E) [8]): ~20 µM | IC50 [9]: 43 µM | IC50 [10]: 1.2 µM | IC50 [11, 19]: 2.5 µM | IC50 [11, 20]: 2.3 µM | IC50 [11, 21]: 4.1 µM | IC50 [11, 22]: 3.6 µM | IC50 [11, 23]: 1.4 µM | Maximum Fold-Reduction in infected cell area ([11]; drug added at 0 hpi): 3.2 | Maximum Fold-Reduction in infected cell area ([11]; drug added at 24 hpi): 4.5 | Maximum Fold-Reduction in infected cell area ([11]; drug added at 48 hpi): 7.5 | Maximum Fold-Reduction in infected cell area ([11]; drug added at 72 hpi): 1.9 | Maximum Fold-Reduction in infected cell area ([11]; drug added at 96 hpi): 1.3 | activity in pretreatment regimen ([12]; 24-hour pretreatment, 72-hour washout, then infection): had no activity | activity when readministered at the time of infection ([12]; control experiment): both drugs were active

CCCCCCCCCCCCCC(=S)NCCCCC(NC(=O)OCc1ccccc1)C(=O)Nc1ccccc1 (stereo not drawn) [TM]
IC50 (HCMV (strain TB40/E) [7]): 26 µM | CC50 (MRC-5 cells): 46.3 µM

COc1cccc(N2CCN(C3=Nc4c(F)cccc4[C@H](CC(=O)O)N3c3cc(C(F)(F)F)ccc3OC)CC2)c1 [letermovir]
time after release of drug block at which progeny virus was detectable [5]: 24 h | production of infectious virus [6]: reduced virus yield to a more limited extent | reduction of infected cell area (HCMV (strain TB40/E) [7]): 4 fold | removal of drug from supernatant and cells by washing [13]: effectively removed from supernatant and cells by washing | intracellular viral DNA accumulation (HCMV DNA): did not have a significant effect on DNA accumulation | IC50 (HCMV (strain TB40/E) [8]; [18]): 0.003 µM | EC90 (HCMV (strain TB40/E) [8]): ~0.05 µM | IC50 [10]: 0.002 µM | IC50 [11, 19]: 0.004 µM | IC50 [11, 20]: 0.004 µM | IC50 [11, 21]: 0.005 µM | IC50 [11, 22]: 0.007 µM | IC50 [11, 23]: 0.002 µM | Maximum Fold-Reduction in infected cell area ([11]; drug added at 0 hpi): 2.0 | Maximum Fold-Reduction in infected cell area ([11]; drug added at 24 hpi): 2.7 | Maximum Fold-Reduction in infected cell area ([11]; drug added at 48 hpi): 3.7 | Maximum Fold-Reduction in infected cell area ([11]; drug added at 72 hpi): 2.0 | Maximum Fold-Reduction in infected cell area ([11]; drug added at 96 hpi): 1.3

CCN(CC)Cc1cc(Nc2ccnc3cc(Cl)ccc23)ccc1O [Amodiaquine, reference compound]
IC50 [14]: 2.8 µM

N#C/C(=C\c1ccc(-c2cc(Cl)ccc2Cl)o1)C(=O)Nc1cccc2ncccc12 [AGK2]
IC50 (HCMV (strain TB40/E) [7]): 3.4 µM | CC50 (MRC-5 cells): > 100 µM

CCC(CC)COC(=O)[C@H](C)N[P@](=O)(OC[C@H]1O[C@@](C#N)(c2ccc3c(N)ncnn23)[C@H](O)[C@@H]1O)Oc1ccccc1 [Remdesivir, reference compound]
IC50 [15]: 0.1 µM | IC50 [16]: 0.4 µM

O=C(Nc1cccc(Br)c1)c1cccc(S(=O)(=O)N2CCCCCC2)c1 [AK-7]
IC50 (HCMV (strain TB40/E) [7]): 8.2 µM | CC50 (MRC-5 cells): > 25 µM

C[C@H](Cn1cnc2c(N)ncnc21)OCP(=O)(O)O [Tenofovir, reference compound]
IC50 [17]: 0.03 µM
